The other results are listed elsewhere or left out.

One assay concerns HSkMC. Put plainly: cytotoxicity call (relative viability < 0.9). The conditions noted are these: 10 µM.
The test system of another assay is HepG2. Briefly: cytotoxicity call (relative viability < 0.9). The note with it: 10 µM.
In the next assay the test system is S. aureus RN4220. Put plainly: growth inhibition call (relative growth <= 0.2). The conditions noted are these: 50 µM.

Turning to `COc1ccc(CNC(=O)c2cc3c(c(-c4cccc(-c5cccc(C#N)c5)c4)n2)[C@H](CCO)N([S@@](=O)C(C)(C)C)C3)cc1`, the cytotoxicity call in the assay with HSkMC and with HepG2 was “inactive” in each case. Further, the growth inhibition call in the assay with S. aureus RN4220 was “inactive”.
As for `COc1cccn(CC(=O)N2CCO[C@@H](CCN)C2)c1=O`, the cytotoxicity call in the assay on HSkMC and with HepG2 was “inactive” in each case. For the same molecule, the growth inhibition call in the assay on S. aureus RN4220 was “inactive”.
In the case of `C[C@@H]1CCCCO[C@H](CN(C)S(C)(=O)=O)[C@H](C)CN([C@@H](C)CO)C(=O)c2cc(NC(=O)Nc3cccc4ccccc34)ccc2O1`, the cytotoxicity call in the assay with HSkMC and with HepG2 was “inactive” in each case. In addition, the growth inhibition call with S. aureus RN4220 is “inactive”.
Turning to `Cc1cc(C)cc(C(=O)N(C)[C@H](Cc2ccc(-c3ccccc3)cc2)C(=O)N[C@@H](Cc2c[nH]c3ccccc23)C(=O)O)c1`, the cytotoxicity call with HSkMC and in the assay with HepG2 was “inactive” each time. For the same molecule, in the assay with S. aureus RN4220, the growth inhibition call is “active”.
Turning to `Cc1ccc(S(=O)(=O)N(C)C[C@H]2Oc3ccc(NS(=O)(=O)c4ccc(F)cc4)cc3CC(=O)N([C@@H](C)CO)C[C@H]2C)cc1`, the cytotoxicity call in the assay with HSkMC and in the assay on HepG2 was “inactive” throughout. For the same molecule, the growth inhibition call in the assay with S. aureus RN4220 is “inactive”.
As to `COCC#Cc1ccc([C@H]2[C@H]3CN(C(=O)c4cccnc4)CC(=O)N3[C@H]2CO)cc1`, the cytotoxicity call in the assay on HSkMC (human skeletal muscle cells) and in the assay on HepG2 was “inactive” in each case. Further, the growth inhibition call in the assay with S. aureus RN4220 was “inactive”.
Regarding `O=C(NCc1ccc2c(c1)OCO2)[C@@H]1[C@@H](CO)[C@@H]2Cn3c(cccc3=O)[C@H]1N2Cc1cncnc1`, the cytotoxicity call in the assay with HSkMC and in the assay on HepG2 was “inactive” in each case. For the same molecule, the growth inhibition call in the assay with S. aureus RN4220 was “inactive”.
As to `Cc1noc(C)c1S(=O)(=O)N(C)C[C@@H]1OCCCC[C@@H](C)Oc2ccc(NC(=O)Nc3cccc4ccccc34)cc2C(=O)N([C@H](C)CO)C[C@@H]1C`, the cytotoxicity call in the assay with HSkMC and in the assay on HepG2 was “inactive” throughout. In the assay with S. aureus RN4220, the growth inhibition call is “inactive”.
Take `C[C@@H]1[C@@H](c2ccccc2)OC(=O)[C@@H]2[C@H]3C(=O)N([C@@H](C)CO)[C@@H]4C(=O)N(Cc5ccccc5)CC=C[C@]34O[C@@H]2/C=C/CCC(=O)N1C`: the cytotoxicity call with HSkMC and in the assay on HepG2 was “inactive” each time. Also, the growth inhibition call in the assay on S. aureus RN4220 was “inactive”.

The values above are taken from the antibiotic and cytotoxicity screens of Wong et al. (2023).
